Hit rate of the full screen: of about 110,000 compounds, about 230 (0.21%) showed an effect of 50% or more. The list shows a part of the results.
What follows are compounds tested against DPAP1 (Plasmodium falciparum, UniProt Q8IIJ9) (assay: primary screen, percent inhibition; read by cleavage of a fluorogenic dipeptide substrate; higher = more effect of the substance).
Parameters: species or system P. falciparum D10 trophozoite lysates; single well
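Also: 30 min substrate incubation versus DMSO and 10 µM JCP410 controls.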

DPAP1, sequence (Q8IIJ9 whole entry, looked up): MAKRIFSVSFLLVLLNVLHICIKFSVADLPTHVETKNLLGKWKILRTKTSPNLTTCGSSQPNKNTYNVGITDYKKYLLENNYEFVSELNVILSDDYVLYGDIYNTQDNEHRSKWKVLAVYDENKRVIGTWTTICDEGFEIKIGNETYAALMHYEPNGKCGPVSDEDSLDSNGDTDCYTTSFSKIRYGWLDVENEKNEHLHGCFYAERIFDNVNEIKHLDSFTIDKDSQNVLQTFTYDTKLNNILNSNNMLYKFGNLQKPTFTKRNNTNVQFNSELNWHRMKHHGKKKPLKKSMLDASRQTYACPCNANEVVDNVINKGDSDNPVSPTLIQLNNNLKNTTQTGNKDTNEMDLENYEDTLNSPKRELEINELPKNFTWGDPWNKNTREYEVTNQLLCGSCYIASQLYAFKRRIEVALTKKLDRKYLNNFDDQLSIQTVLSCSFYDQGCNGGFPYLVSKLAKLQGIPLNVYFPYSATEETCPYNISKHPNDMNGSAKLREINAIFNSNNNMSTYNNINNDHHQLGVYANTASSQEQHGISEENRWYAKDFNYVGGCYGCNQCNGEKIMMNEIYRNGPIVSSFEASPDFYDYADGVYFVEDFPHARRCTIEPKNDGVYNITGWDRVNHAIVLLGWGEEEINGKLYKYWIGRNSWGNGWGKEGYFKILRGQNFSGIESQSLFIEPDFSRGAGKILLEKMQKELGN

SMILES | % Inhibition @ 10 uM [%]
COC(=O)c1c(NC(=O)c2ccccc2OC)sc2c1CCC(C)C2 (centres unmarked) | -2.09
Cc1ccccc1C(=O)Nc1cccc(NC(=O)c2nc[nH]n2)c1 | -0.0555
COc1cccc(N(CC(=O)Nc2ccc(Br)cc2)S(C)(=O)=O)c1 | 3.17
Cc1ccc(C2CC(=O)N3C(=C2C#N)SCC3(O)c2ccc(C)cc2)cc1 (centres unmarked) | 1.64
COc1ccc(C(=O)Nc2cccnc2)cc1 | -3.69
COc1ccc(C(=O)Nc2ccc(S(=O)(=O)N3CCCCCC3)cc2)cc1Br | -1.24
CCn1cc(C(=O)N2CC=C(c3ccccc3)CC2)c(=O)c2ccc(C)nc21 | 1.76
COc1ccccc1CNC(=O)C1COc2ccccc2O1 (centres unmarked) | -1.41
CCCCOc1ccc(C2c3c(-c4ccccc4O)n[nH]c3C(=O)N2CCO)cc1 (centres unmarked) | -1.35
Cc1ccc(C(=O)Nc2ccc(Br)cc2)cc1 | 4.6
CCc1nn(C(C)C(=O)NCc2cccc(Cl)c2)c(=O)c2cc3occc3n12 (centres unmarked) | 4.55
N#Cc1cn(CC(=O)N2CCCC2)c2ccccc12 | 0.777
CCc1ccccc1N1C(=O)C2CC(C)=C(C)CC2C1=O (centres unmarked) | -2.48
CC1CCc2c(sc3ncn(Cc4ccccc4Cl)c(=O)c23)C1 (centres unmarked) | -3.41
CCOC(=O)C1CCCN(c2cc(C)c3cccc(SC)c3n2)C1 (centres unmarked) | -4.75
CCc1nnc(NC(=O)c2nc(SC(C)C)ncc2Cl)s1 | 2.41
CC1CCCCN1S(=O)(=O)c1ccc(Cl)cc1 (centres unmarked) | 2.26
Cc1ccc(CNCCSc2nnnn2-c2ccccc2)cc1 | -4.91
O=c1/c(=C/c2cn[nH]c2-c2ccc(Cl)cc2)sc2nc3ccccc3n12 | -7.56
COc1ccc(-c2nn3c(-c4ccncc4)nnc3c3ccccc23)cc1 | -1.35
COc1ccc(NC(=O)CN(c2ccc(F)cc2)S(C)(=O)=O)cc1Cl | -5.7

SMILES | % Inhibition @ 10 uM [%]
COc1ccc(NC(=O)CCC(=O)c2ccc(-c3ccccc3)cc2)cc1 | 3.53
Cc1ccc(Cn2nnc3c(O)nc(C4CCN(C(=O)CC(C)(C)C)CC4)nc32)cc1 | -1.82
O=C(Nc1nccs1)C1CCCN1S(=O)(=O)c1ccc(F)cc1 (centres unmarked) | -2.09
COc1ccc(N2C(=O)CCC(C(=O)c3ccccc3)=C2C)cc1 | 0.847
CCc1ccc(-n2c(C)cc(/C=C3/C(=N)N4C(=NC3=O)SN=C4S(C)(=O)=O)c2C)cc1 | -3.39
CCCCNCC(O)Cn1c(=O)sc2ccccc21 (centres unmarked) | 0.829
Cc1ccc(S(=O)(=O)NC(=O)c2ccccc2)cc1C(C)C | 4.41
COc1ccc(N2CCN(Cc3ccc(N(C)C)cc3)CC2)cc1 | 2.33
Cc1ccc2oc(=O)c3cc(C(=O)N4CCC(C)CC4)sc3c2c1 | 0.809
CC1CCCN(Cc2nc3c(c(=O)n(C)c(=O)n3C)n2Cc2cccc3ccccc23)C1 (centres unmarked) | 1.23
Cc1nn(CC(=O)NCc2ccc3c(c2)OCO3)c(=O)c2cc3sccc3n12 | -1.58
O=C1CCCN1c1ccc(S(=O)(=O)NCc2ccccc2)cc1 | 3.32
O=C(c1ccc(C#CC2(O)CCCCC2)cc1)N1CCN(c2cccc(Cl)c2)CC1 | 5.2
O=C1c2cccnc2C(=O)N1Cc1ccc(F)cc1S(=O)(=O)NC1CCCc2ccccc21 (centres unmarked) | -3.29
Cc1ccc(NC(=O)c2ccccc2[N+](=O)[O-])c(C)c1 | -2.54
N=C(NOC(=O)N1CCOCC1)c1ccccc1 | 3.59
O=C(Cn1c(=O)n(Cc2ccccn2)c(=O)c2sc3ccccc3c21)c1ccc(F)cc1 | 2.04
O=C(NCCC1=CCCCC1)c1cccnc1S | 32.2
CCC(C)NC(=O)c1ccccc1NS(=O)(=O)c1ccc(OC)c(OC)c1 (centres unmarked) | 0.727
CCN1CCC(C#N)(NC(=O)[C@H](Cc2c(F)cc(OC)cc2F)NC(=O)c2ccc(-c3cc(C(=O)O)ccc3Cl)cc2)CC1 | -3.14
O=C1CCc2c1[nH]c1ccc(C3CCCCC3)cc21 | -2.72

SMILES | % Inhibition @ 10 uM [%]
COc1cc(Br)cc2cc(C(=O)NCCc3c(C)[nH]c4ccc(C)cc34)c(=O)oc12 | 10.3
CCC1CCCCN1C(=O)CSc1nnc(-c2ccc(Cl)s2)o1 (centres unmarked) | 1.3
CCOc1ccc2nc(SCC(=O)Nc3ccccc3OC)c(C#N)cc2c1 | 3.05
COc1cc(C(=O)O/N=C2/C=CC(=O)C(C)=C2C)cc(OC)c1OC | 3.47
COc1ccc(CCNc2ncnc3c2cnn3C)cc1OC | 3.2
CCS(=O)(=O)c1ncc(Cl)c(C(=O)Nc2sc3c(c2C#N)CCCC3)n1 | -4.64
CC(=O)c1nn(-c2ccc(F)cc2)nc1NC1CCc2ccccc21 (centres unmarked) | -1.71
Cc1c2cnn(CC(=O)N3CCC(C(N)=O)CC3)c(=O)c2c(C)n1Cc1ccc(F)cc1 | -2.17
CN(Cc1ccccc1)C(=O)C1CCC(CNS(=O)(=O)c2cccc3nsnc23)CC1 (centres unmarked) | -0.465
CCOC(=O)c1c(CN2CCN(C(=O)OCC)CC2)n(-c2ccccc2)c2ccc(O)cc12 | -0.958
CCN(CC)CC(=O)NC(C)(C)Cc1ccc(O)cc1 | -0.473
Cc1oc(-c2ccccc2F)nc1CS(=O)(=O)CC(=O)NCCCN1CCc2ccccc2C1 | -1.89
C(=C\c1ccccc1)/CN1CCN(C2CCC(c3ccccc3)CC2)CC1 (centres unmarked) | -1.82
O=C(NC1CCN(c2ncccn2)CC1)C1CC1 | -2.88
CCOCCCNC(=O)CN1N=C(c2ccc(OC)cc2)CCC1=O | 3.24
CC(=C1C(=O)c2ccccc2C1=O)N1CCC(C(N)=O)CC1 | -4.68
CCCCOc1ccc(C(C)NC(=O)CN2CCN(Cc3ccc(Cl)cc3)C2=O)cc1 (centres unmarked) | -4.76
COc1ccccc1C1C(C(=O)Nc2cccnc2)=C(C)Nc2nc(-c3cccs3)nn21 (centres unmarked) | -0.123
COc1ccc(/C=C(\C#N)c2nc(-c3ccc(OC)c(OC)c3)cs2)c(OC)c1 | 3.45
Oc1cc(-c2ccccc2)nc2ncnn12 | 0.392

— paper PMC6919601, “Identification of Plasmodium dipeptidyl aminopeptidase allosteric inhibitors by high throughput screening” (PLoS ONE, 2019)
